# Results reported in the BET-seq Pho4 binding data (Le et al. 2018).
# This is one part of the list. Values were computed here from the reads of four pooled replicates and scatter widely.
# Biological target: T1, Pho4 (S. cerevisiae) (UniProt P07270)
# T1 sequence: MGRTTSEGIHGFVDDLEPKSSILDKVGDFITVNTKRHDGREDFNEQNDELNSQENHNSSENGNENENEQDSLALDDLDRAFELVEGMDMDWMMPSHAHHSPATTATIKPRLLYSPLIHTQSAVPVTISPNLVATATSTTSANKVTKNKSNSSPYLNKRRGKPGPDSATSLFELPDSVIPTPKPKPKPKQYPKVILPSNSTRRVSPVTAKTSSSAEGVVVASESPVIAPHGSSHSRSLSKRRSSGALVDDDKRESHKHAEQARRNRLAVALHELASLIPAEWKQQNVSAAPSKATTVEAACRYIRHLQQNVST
# Assay: relative binding free energy (BET-seq); higher = weaker binding
# Conditions: reference: library average
row,Sequence,relative binding free energy
1,AGAGGCACGTGTAGGA,0.02 kcal/mol
2,GTAGACACGTGGGGGA,-0.02 kcal/mol
3,TGTAACACGTGGGATA,-0.11 kcal/mol
4,TAAATCACGTGGATTT,0.14 kcal/mol
5,AGTTGCACGTGTCGTC,0.05 kcal/mol
6,GGGAGCACGTGGTTGG,-0.06 kcal/mol
7,GGGTACACGTGAGGGC,0.3 kcal/mol
8,GGGGGCACGTGGTGCG,-0.15 kcal/mol
9,TGTGGCACGTGCGCGC,-0.32 kcal/mol
10,GTTCGCACGTGGGGTG,-0.14 kcal/mol
11,TGGGTCACGTGCCTTT,0.19 kcal/mol
12,TGGACCACGTGAGGTA,0.15 kcal/mol
13,TAAAGCACGTGGTCGG,-0.32 kcal/mol
14,TGTACCACGTGGGCTT,-0.14 kcal/mol
15,GACTGCACGTGGAGGG,-0.14 kcal/mol
16,ATTGTCACGTGGGACT,-0.04 kcal/mol
17,CGCGTCACGTGGATAG,0.14 kcal/mol
18,TGTTTCACGTGGTAAG,0.23 kcal/mol
19,TATATCACGTGTTGTG,0.03 kcal/mol
20,TAGAGCACGTGTTGGC,-0.11 kcal/mol
21,TATTGCACGTGTCTAA,0.06 kcal/mol
22,TATGACACGTGTTAGG,0.02 kcal/mol
23,GATGACACGTGGGTGC,-0.08 kcal/mol

row,Sequence,relative binding free energy
1,AAGAGCACGTGTGTAA,-0.05 kcal/mol
2,GTAGACACGTGTTGTG,-0.03 kcal/mol
3,TAAATCACGTGTGCTT,0.07 kcal/mol
4,TGAAACACGTGTATAG,0.06 kcal/mol
5,TTGCGCACGTGCAGGT,-0.24 kcal/mol
6,CTAGGCACGTGGTGGG,-0.24 kcal/mol
7,AGTGTCACGTGAGTGA,0.22 kcal/mol
8,GTTAGCACGTGGGACA,-0.14 kcal/mol
9,CAGTGCACGTGTGGAT,0.01 kcal/mol
10,ATGCGCACGTGTTTTG,-0.08 kcal/mol
11,TGGAGCACGTGTACGT,-0.11 kcal/mol
12,GATGACACGTGTAGGG,0.02 kcal/mol
13,GTCATCACGTGGGTAT,0.12 kcal/mol
14,TGTGGCACGTGGCGTT,-0.15 kcal/mol
15,CGTGACACGTGTGGGC,-0.04 kcal/mol
16,AGTTACACGTGTACAT,0.2 kcal/mol
17,GATGTCACGTGTGTGG,0.23 kcal/mol
18,TTAAACACGTGGGTTG,-0.17 kcal/mol
19,CGGCGCACGTGTTGTA,-0.09 kcal/mol
20,CTGGTCACGTGATATT,0.18 kcal/mol
21,TTGGTCACGTGAGTGT,0.34 kcal/mol
22,TTTAGCACGTGACTGT,0 kcal/mol
23,GGGGCCACGTGGTTCG,-0.13 kcal/mol

row,Sequence,relative binding free energy
1,TCGAGCACGTGCGTTG,-0.05 kcal/mol
2,TTTAACACGTGAAAGT,0.3 kcal/mol
3,TTAGGCACGTGTAAAG,-0.06 kcal/mol
4,AGCTGCACGTGTCGTG,0.12 kcal/mol
5,CGAGTCACGTGGAGTA,0.01 kcal/mol
6,TTAGTCACGTGTTGCT,0.02 kcal/mol
7,TGCGGCACGTGGGCAG,-0.32 kcal/mol
8,GAGTGCACGTGACGGT,0.03 kcal/mol
9,GTCAACACGTGTGTTG,0.09 kcal/mol
10,GATCGCACGTGGTGGT,-0.07 kcal/mol
11,TTTACCACGTGTAAGG,0.03 kcal/mol
12,GTCTTCACGTGGCGGA,0.27 kcal/mol
13,TGTGACACGTGATGGC,0.19 kcal/mol
14,CAATGCACGTGATGGT,0.12 kcal/mol
15,CGGGTCACGTGGCGAG,0 kcal/mol
16,AAAGGCACGTGGCTGG,-0.1 kcal/mol
17,AAGGGCACGTGGGATT,-0.13 kcal/mol
18,GATAGCACGTGGTTAG,-0.07 kcal/mol
19,AATAACACGTGTAGGT,-0.05 kcal/mol
20,CTGTGCACGTGTGTTT,-0.01 kcal/mol
21,TGCCTCACGTGTGGGT,0.39 kcal/mol
22,GTATACACGTGTTGGA,0.12 kcal/mol
23,AATTGCACGTGTGTCG,0.13 kcal/mol

row,Sequence,relative binding free energy
1,TTCGTCACGTGTTAGG,0.11 kcal/mol
2,GAGGCCACGTGTGGTT,0.14 kcal/mol
3,CTGGGCACGTGCGGAG,-0.09 kcal/mol
4,ATGGACACGTGGAGTT,0.18 kcal/mol
5,CTATGCACGTGGTTGT,-0.16 kcal/mol
6,TTAGCCACGTGATTTG,0.05 kcal/mol
7,TGGGCCACGTGTGGTA,-0.01 kcal/mol
8,GCGAGCACGTGGAGGG,-0.23 kcal/mol
9,TTCTTCACGTGAAGGT,0.36 kcal/mol
10,GTAGGCACGTGAGTGT,0.21 kcal/mol
11,ATGGGCACGTGTGCGA,-0.25 kcal/mol
12,TGTGGCACGTGTACGG,-0.04 kcal/mol
13,CCGTACACGTGAGGGG,0.24 kcal/mol
14,CGGCGCACGTGGTGTT,-0.21 kcal/mol
15,AATGGCACGTGATTAG,0.13 kcal/mol
16,CCGGGCACGTGCGGGG,-0.23 kcal/mol
17,GATTGCACGTGTTGGC,0.14 kcal/mol
18,GTTTTCACGTGTGGTG,0.34 kcal/mol
19,GGCAGCACGTGGGTGT,-0.25 kcal/mol
20,GTGGTCACGTGATGCT,0.3 kcal/mol
21,ATGCGCACGTGCTGTG,-0.14 kcal/mol
22,AGTTGCACGTGCCTGT,-0.13 kcal/mol
23,GTTTACACGTGTTTCA,0.19 kcal/mol

row,Sequence,relative binding free energy
1,ATTAGCACGTGTTCGG,-0.19 kcal/mol
2,ATCGGCACGTGAGCGG,0.05 kcal/mol
3,GGTACCACGTGGGGGC,-0.22 kcal/mol
4,TGATCCACGTGTGTTA,0.06 kcal/mol
5,TCATTCACGTGGCAGT,0.28 kcal/mol
6,AGGGCCACGTGATGTG,0 kcal/mol
7,GGAACCACGTGGGTTG,-0.05 kcal/mol
8,TGTCGCACGTGGTGGC,-0.17 kcal/mol
9,CAGAGCACGTGTTGGG,-0.21 kcal/mol
10,TATTGCACGTGTGTTA,-0.02 kcal/mol
11,ATTTACACGTGTATAT,0.13 kcal/mol
12,TCTTTCACGTGAGTTT,0.43 kcal/mol
13,CTGCACACGTGTTGGG,0.08 kcal/mol
14,AAATGCACGTGTTGAG,-0.03 kcal/mol
15,TGGGTCACGTGTGGAG,0.19 kcal/mol
16,TCAGGCACGTGGTTGA,-0.13 kcal/mol
17,GATTGCACGTGTAAAG,0.11 kcal/mol
18,GTAGGCACGTGGTGGC,-0.11 kcal/mol
19,TCAGTCACGTGTGTTG,0.12 kcal/mol
20,TTAGGCACGTGATGAC,0.1 kcal/mol
21,CTTCTCACGTGGTGGA,0.21 kcal/mol
22,GGTGGCACGTGCTGCG,-0.14 kcal/mol
23,TATTTCACGTGGGATA,0.11 kcal/mol
